Source: the supplement of paper PMC10126150
Sequences with one replicate were seen in a single cluster, so their values are uncertain.

Test system: ATP
Assay: switch fluorescence ratio, 500 uM ATP over buffer (Cy3 cluster intensity, sum of 5 cycles each) (fold (ratio)); higher = stronger signal-on switching upon ATP binding; sequences stand for … in TCGTCGGCAGCGTCAGATGTGTATAAGAGACAGTTTTTTTTTTTTTTTTTTTTTTTTT…TC
Details: aptamer strand: ATP DNA aptamer (quencher-CACCTGGGGGAGTATTGCGGAGGAAGG + anchor), 100 nM annealed; ATP concentration: 500 uM; one replicate
Outline: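 Five buffer/ATP imaging cycles were run on Cy3-labelled switching-strand clusters on a modified Illumina MiSeq flow-cell, with NaOH stripping and re-annealing between cycles. In each cycle, clusters annealed to 100 nM quencher-labelled ATP aptamer were imaged in selection buffer, then after 15 min with 500 uM ATP at 22 °C. Per cluster, the fluorescence ratio is summed target-cycle over summed buffer-cycle Cy3 intensity, averaged per switch-domain sequence. Only clusters within 100-1000 RFU were kept.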
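Also: ATP exposure 15 min at 22 °C before imaging.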

Row | Sequence | switch fluorescence ratio
1 | TTCCGCGAAA | 6
2 | TTTGGCTGCT | 0.966
3 | CCGCTCGTTA | 2.74
4 | GATGCAGCTC | 1.16
5 | AGTGGGACC | 1.01
6 | TGGGATGGT | 1
7 | TCAGTAATGG | 1.13
8 | GTCCGAGGTC | 1.06
9 | CGATATGGAA | 0.999
10 | ATTAGGCGTA | 1.03
11 | CGGGTTCGAA | 1.09
12 | GTTTCACGAC | 1.03
13 | ACCTAACAGT | 1.17
14 | TTTGTTACCT | 1.13
15 | TGTAGTAGGC | 0.938
16 | ATCCAATCTG | 0.948
17 | CGTCACTCGT | 1
18 | TTTAGACAAC | 1.01
19 | TAGTAGTACT | 1.03
20 | ACAGGATCTT | 0.977
21 | GGTCGGCATT | 0.964
22 | GCTGACGTGC | 1.07
23 | GTTGGGTAAG | 0.952

Row | Sequence | switch fluorescence ratio
24 | AAATCATTG | 1.01
25 | GACTTTAATT | 1.03
26 | TCCCCCGGGT | 4.67
27 | CGCGTGAACC | 1.04
28 | AATTAATGAA | 1.04
29 | GATGCTTGT | 1.01
30 | CAGACTTGAT | 1.04
31 | GCAGGCTGGG | 0.981
32 | ATCGAGGGTC | 0.93
33 | ATTGAAATAG | 0.989
34 | TAGGCATTT | 0.999
35 | TGGGTGGGAG | 0.987
36 | GACTAGACCT | 1.33
37 | ATTTTTTCTA | 1.03
38 | TTATGGCTAG | 1.04
39 | TAGGCTGTCA | 0.98
40 | TTTCCTCTTG | 1.09
41 | TAGTTCAACT | 0.974
42 | AAAGCATTGA | 1
43 | ATGAGAGGAC | 1.02
44 | CTGTCACAGC | 1.04
45 | GGCTGGGTCT | 0.995
46 | CGAGCACGCC | 1.06

Row | Sequence | switch fluorescence ratio
47 | TTGCCCTGCG | 1.02
48 | CGGTCAACGT | 0.971
49 | GGCGTCAGGT | 0.985
50 | CCACTCGGGG | 1.02
51 | AACGGGGTCC | 1.01
52 | GATGAAAGCG | 1.01
53 | CAACGAAAAA | 1.03
54 | CGTTACCTCA | 1.04
55 | ATAACGTATA | 1.15
56 | TTTCCTTAAG | 0.989
57 | CGTACAGTTT | 0.971
58 | TTATACGTAC | 1.88
59 | GCAATTTCGT | 1.06
60 | TTGGCTGGAT | 0.994
61 | AAATACAGAA | 1
62 | ATCCTCTACA | 1.07
63 | CTTTGTTATT | 0.999
64 | ACAATGGTTC | 1.05
65 | ATCGTCGGGG | 0.964
66 | ACGTTTGACG | 0.944
67 | CAGTATAGCT | 1.04
68 | TACTAGACGC | 1.13
69 | CTAATTACGG | 1.05

Row | Sequence | switch fluorescence ratio
70 | GGGTGTAGGG | 1.03
71 | CGTGCCACCG | 1.03
72 | TGCTCACTAA | 1.02
73 | CTCCTTTGGA | 1.02
74 | CGCCCATTTA | 0.97
75 | TACATCTGTA | 0.955
76 | AGCAGTGAAA | 0.999
77 | CGAACCCGCT | 1.02
78 | TGAAAATGAT | 0.984
79 | AAATTCAATT | 0.989
80 | GAACTTTACA | 1.2
81 | TTCGTTGACA | 0.997
82 | TGACTTGGAG | 1.02
83 | TCGTCCTGCA | 1.66
84 | GATGCACGGT | 1.01
85 | TTTCGACCCA | 1.04
86 | CTTAGACGTG | 1.02
87 | ATGGTGTAAC | 1.02
88 | ATATTCATGC | 0.997
89 | TTGGAAATCG | 0.983
90 | CGTTCTTAGT | 0.972
91 | ATCGCGCCTC | 1.1
92 | ATCATTTTCT | 0.998

Row | Sequence | switch fluorescence ratio
93 | TTGCCTGATG | 0.961
94 | ATTTGGGGA | 0.975
95 | TCGCAGCCAA | 5.47
96 | GATGCAGGAT | 1.07
97 | ACAGGCATC | 1
98 | ATGTCTATTG | 0.995
99 | TATAAGATCA | 1
100 | ATCGCTCGGC | 1.07
101 | TGTAATGTAC | 2.01
102 | TCCCAGGTCA | 1.82
103 | AGTGTTTCAT | 1.01
104 | AAATAAGGGC | 1.01
105 | AGGATGTGGG | 0.986
106 | GGGGGAGGAC | 1.01
107 | TCTGATTTGA | 1.04
108 | GGCATGAGCC | 1.12
109 | CCATGGTTGG | 1.02
110 | TAGTGGTAAG | 0.974
111 | CAAGCCACAA | 1.12
112 | GGGCTATG | 1.01
113 | AAGAAAGGAC | 2.66
114 | CCAAAGCATT | 6.17
115 | GAGGGCAGGC | 0.65

Row | Sequence | switch fluorescence ratio
116 | ACCTGCTGCA | 1.22
117 | TTCGTGAGGC | 1.03
118 | TCGGTAAAGT | 1
119 | TGTGTCTGT | 0.988
120 | ATGAGGCCTG | 1.02
121 | TTAGATCTTA | 0.98
122 | CGGGGTGGC | 1.04
123 | GCCAGGACCC | 1.03
124 | CGCTTAATAG | 2.14
125 | GAACGGGGCA | 1.08
126 | TGTACTCAGG | 1.24
127 | GGGTGCGACG | 0.989
128 | GAAGGATGAA | 0.988
129 | CAGGACCGTA | 1.03
130 | CCATACGGAT | 1.04
131 | CAGTATGGAT | 0.975
132 | TCTCTACTCG | 1.01
133 | ACAGGCACTT | 1.11
134 | CTAATGCAGG | 1.02
135 | AAGCTAGGCG | 1.03
136 | GGCTATATTG | 1.02
137 | CAGATGCTGA | 1.01
138 | CCTCTGAGCG | 1.06

Row | Sequence | switch fluorescence ratio
139 | AAACCCCGGA | 1.12
140 | ACCTTCTGCA | 1.39
141 | TGCGGAGTTT | 1.01
142 | GCCATGATGC | 1.04
143 | TTCCTGTCTT | 1.01
144 | CATTGTAGCT | 1.02
145 | TGACTAAAAG | 0.927
146 | TAGGTTTATC | 1.02
147 | GCGTAGAAGG | 1
148 | AACAGAAGAT | 1.01
149 | GCCCCGTCTT | 1.02
150 | CCCGAAATAA | 4.12
151 | ATCAGTAGAG | 1.02
152 | CATAAGGGGG | 1
153 | CTTCCGTATT | 2.83
154 | AGCGGTATCC | 1.05
155 | CTTTTAATGT | 1.03
156 | TATGTTACGA | 1.04
157 | AGATTCGAAG | 0.957
